Experimental data as given in PMC12136788.
The other results are listed elsewhere or left out.

T1: UNK ZnF1-3 (human, UniProt Q9C0B0 31-174)
T1 sequence: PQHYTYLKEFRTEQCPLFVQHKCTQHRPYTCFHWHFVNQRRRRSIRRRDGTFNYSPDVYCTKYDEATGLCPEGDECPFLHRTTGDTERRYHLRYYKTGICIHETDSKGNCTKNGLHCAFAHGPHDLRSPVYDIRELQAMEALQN

B1: chr2:9570881:9570882:+_ENSG00000119203_ENST00000238112|hu_mus|hu_hu_hu_mus_False|28_28 (ssRNA)
RNA: GGGAGUUCUACAGUCCGACGAUCACUUGUCUUCUGAAGGAACCAGGGCAGGGCUCCACAGUGAUCCAAAUGGAAAUGACUGAUCAACAGAAGGUCGAUCUCAGCUGGGUCAAUUAAGUCAAUGUAAGGAAGGGCAUCCAUUCCCAACAGAGGAUUGAGCAUCA
B2: chr3:102850973:102850974:+_ENSMUSG00000068823_ENSMUST00000029446|mus_hu|FALSE|FALSE (ssRNA)
RNA: GGGAGUUCUACAGUCCGACGAUCACGGUGAUCUGAAUGGGAAUGAAAUGAAACCGUGCCCUUGGGAAGUUUUUUAAUCCUAAUAGCAUGAUUUCUUUGAGCAGAGAGCAUAUCAGGAACCACAGUAAACUCUACUUCAUCUGCCAACAGAGGAUUGAGCAUCA
B3: chr2:42509997:42509998:+_ENSG00000143924_ENST00000318522|hu_mus|hu_hu_hu_mus_True|48_68 (ssRNA)
RNA: GGGAGUUCUACAGUCCGACGAUCUCGCUGAGUCCUCUCCUCAUAAUUAAACAGGACUACCACUGAGGCAAUGAAAUAAACUAUCUCCCCGGUCGGAAGCAGGUAUACAUUCGCUCUACAGUCCUUUCCUCGAUAACCGUAUACCAACAGAGGAUUGAGCAUCA
B4: chr7:143002065:143002066:+_ENSG00000106144_ENST00000310447|hu_hu|FALSE|FALSE (ssRNA)
RNA: GGGAGUUCUACAGUCCGACGAUCCAGAGUGCUGCAGUAUUCAGACAUCUCCUUGCACCGGUGGAAUUCUGUGCCAGGAGCAUAACCUUCCCGAUCCUUGAUAAGUGCGUUCACCUUAACCAGCAUGUCGGCCACGUGCAUAUCCAACAGAGGAUUGAGCAUCA
B5: chr3:121489220:121489221:-_ENSG00000173226_ENST00000310864|hu_mus|FALSE|FALSE (ssRNA)
RNA: GGGAGUUCUACAGUCCGACGAUCUGCCAGCUUUCACAGUACUCUCUAGGGAGGUUUGGUUCCACCGAUAAAUAACAUUCCUAAAUCUAUACUAAGCUCAUCCUUUGGAACAUCAACCUCAUCCCCUGGUUCUUCUCCAAGCUUCAACAGAGGAUUGAGCAUCA
B6: 91961825_91961945_1595_CDS_ENSG00000187742_ENST00000375807|human|control|control (ssRNA)
RNA: GGGAGUUCUACAGUCCGACGAUCCUUCUUGGCCUUGGGGAUCUCCCUCUGCUUCCCUUUCUUCAUCAGUGGGGCGCUGGAGUCCAAGGGAUUGUGCGGGGUCUUCAUUUGACUCAUGCGGCGGCCUCUCUCCCCUGAUGCACACAACAGAGGAUUGAGCAUCA
B7: chr1:93301758:93301759:+_ENSG00000122406_ENST00000370321|hu_mus|motif|central (ssRNA)
RNA: GGGAGUUCUACAGUCCGACGAUCGUAUUCACCUCCAUUCACCUCCACUUGGCCUUCAUAGAUCUUGUCCAUGCCAAACCGGUUCAGAAGCCUGCGGGCCAGCAGCAGGCCAGUGCAAUAGGCUGCAGCAUAAUUUGUCAGGCCCAACAGAGGAUUGAGCAUCA
B8: chr17:55758012:55758013:+_ENSG00000153944_ENST00000284073|hu_mus|FALSE|FALSE (ssRNA)
RNA: GGGAGUUCUACAGUCCGACGAUCUCCUUUUAAAAAACGUCUUGGGAAAAGCAGUUUUUCAUAUUUUAAAUAAAAAUCUAGCUAGAUCAUAACAUUAGAAGCUGUGCACAGAGAGGCUGGUAGGCUGGCAGGGUGCUAAUGUGGCAACAGAGGAUUGAGCAUCA
B9: chr10:1038518:1038519:+_ENSG00000107937_ENST00000545048|hu_hu|hu_hu_hu_mus_False|58_108 (ssRNA)
RNA: GGGAGUUCUACAGUCCGACGAUCCAGUCUAUCAUGGUAAUUCUGUUGAGUAAAUUUGACUUUUCUCAUAUAAAAAUGUCUAAUGCGAUGAAUUUGAUAAUGUUUAUGAAUAACCGUUGGAGUCUUUCGUUGAGUCUUGGAUAACAACAGAGGAUUGAGCAUCA
B10: chr7:25763974:25763975:-_ENSMUSG00000040907_ENSMUST00000080882|mus_hu|FALSE|FALSE (ssRNA)
RNA: GGGAGUUCUACAGUCCGACGAUCCUUCUCCACCCAACCCCCUGGGUUCCUGCGCAGGAUGAGUUUGCGGAUUUCGUCGUAGACGAAGAUGAGGAAACUGUAGGGGAAGGCACAGAACCACCAGCUGGGCUUGAGAGGGUACAUCAACAGAGGAUUGAGCAUCA
B11: chr8:104447970:104447971:+_ENSG00000164934_ENST00000297579|hu_hu|hu_hu_hu_mus_False|8_68 (ssRNA)
RNA: GGGAGUUCUACAGUCCGACGAUCAUACACUUCCCUGCUUCGGCUCUUGUCCACAGGAAAGAUUCUAAUAGAUUUAUCAAAGCUGGCAGACACAAAUUCCUUCCCAGUGGGAGAGUAGUCCACAUCAAGCACUGCAGACACGUGCAACAGAGGAUUGAGCAUCA
B12: chr16:14041815:14041816:+_ENSG00000175595_ENST00000311895|hu_hu|FALSE|FALSE (ssRNA)
RNA: GGGAGUUCUACAGUCCGACGAUCGGGGCACCAGAGAAUCCGUAGUCUGGGGAAGUGAAGUGUAAGAAGAGUGAGUUUGGAACUAAUGUCAUUGCUGGAGAUCUCCUGAAACAAGGCACCUCGGGAAGUGAGAGAGAAAGGCUUCAACAGAGGAUUGAGCAUCA
B13: 64906751_64907430_1076_3pUTR_ENSG00000113595_ENST00000231524|human|control|control (ssRNA)
RNA: GGGAGUUCUACAGUCCGACGAUCACAAUUCCAACUAAUUUUCUGGAAUAAUCUGAGAUUUCCUCUGUGAAGGUCCGUAUGCAGUGAGCCAUAUCUAAAAUUGAUGCUCGGAUCUGAUUAGCUUCUGGUUCCAAUACUGAAUGCCAACAGAGGAUUGAGCAUCA
B14: chr11:54532911:54532912:-_ENSMUSG00000052298_ENSMUST00000064104|mus_mus|FALSE|FALSE (ssRNA)
RNA: GGGAGUUCUACAGUCCGACGAUCGCAGAGGGGCUGGAGGUGCAAUGAAAAGGCUUAAAAUGGAAAAAUUACAAUACAGUGCUAGCAGUCACAGAAAAGACCAUGCUAAGAUCCGAUCCAUGUCAAUUAAACAUUGAAAAUUCACAACAGAGGAUUGAGCAUCA
B15: chr3:169712149:169712150:+_ENSG00000008952_ENST00000337002|hu_mus|FALSE|FALSE (ssRNA)
RNA: GGGAGUUCUACAGUCCGACGAUCCAAACACAAGAAGAGAAACAGCCUAAAGGAGGAUGAAGACCUAUAUAUCCAUCACCUACUAACUACAAAGCAAAACCACCGUGUGACUAAAGGAAAAUCACUCACUGCUCACUGGGGUGUCAACAGAGGAUUGAGCAUCA
B16: chr17:64801638:64801639:+_ENSG00000154229_ENST00000413366|hu_mus|hu_hu_hu_mus_False|8_38 (ssRNA)
RNA: GGGAGUUCUACAGUCCGACGAUCUAUAUAUAUAUAUACAUAUGUACACAUAUAUAGUAAAACCCUAGUUAAACGUGUAAAGUAGCCAUUCAUUUUUGAAAUUUUAUCUACAUUAAAAAAUUAAUAUAUCUGAUACAGUGCCAGCAACAGAGGAUUGAGCAUCA
B17: chr13:100201707:100201708:-_ENSMUSG00000052727_ENSMUST00000064762|mus_hu|FALSE|FALSE (ssRNA)
RNA: GGGAGUUCUACAGUCCGACGAUCCUGACUGACAUCUAUUUGUGUGGGAGAAACAUCUCCUAAUUUCCUUUCAUCCAGAGCCAGUGCUGGUUGAGAACUCAUGGCUUCAACAUCAUCAGUUUUCUUUUCUUGGCCAAAGUCUUCCAACAGAGGAUUGAGCAUCA
B18: chr19:16212804:16212805:+_ENSG00000167460_ENST00000300933|hu_mus|hu_hu_hu_mus_False|38_68 (ssRNA)
RNA: GGGAGUUCUACAGUCCGACGAUCAACAAUUCUGGAGUGAAGGAAAGAUGUAACAUGGAACAGCAUUCCAUCUAUUACAGAAGGCACAUGGGCAACAAUGACUAUUUCAGCAUUCUCGCUUGGAAUGCUUAAAGACAAUCUGUUCAACAGAGGAUUGAGCAUCA
B19: chr1:109605286:109605287:-_ENSG00000197780_ENST00000461096|hu_mus|hu_hu_hu_mus_True|1_18 (ssRNA)
RNA: GGGAGUUCUACAGUCCGACGAUCAAGUUUCAGAGUAACAUUCAGUAACCUCUUUAAAUGCAAUUAUCCUUAUUAUAAGCUAAGCAGAAUAAUAAUUUAAUACCGUAAGUGAACUACCACAAAACCUUGAACCGCGAAACUACACAACAGAGGAUUGAGCAUCA
B20: chr7:141445308:141445309:+_ENSG00000106028_ENST00000265304|hu_hu|hu_hu_hu_mus_False|58_68 (ssRNA)
RNA: GGGAGUUCUACAGUCCGACGAUCUAUGAUUGUUGUUGCUUGCCGCCUCACAUUGUUUUUAUCCAUGUAUUCACCAUAGUCUAUUUUCCCUUCCACAAAUAUACGAGCCCCCUUUUUCACAUACUGAUAUGCCACAUCUCUGAGCAACAGAGGAUUGAGCAUCA
B21: chr14:89327608:89327609:+_ENSG00000165533_ENST00000346301|hu_hu|motif|central (ssRNA)
RNA: GGGAGUUCUACAGUCCGACGAUCUUCCUCAUAGAUUCUUGCAAUUCCACAGAGCAGGGUUACUUCUCCUGGAAACUUAUCGGAGCCUUGUUUGAAAAGAUUUAAAGCAGUCACAGGUUGAUCCAAUGAGACAUAAACUUUUGCCAACAGAGGAUUGAGCAUCA
B22: chr2:232320318:232320319:-_ENSG00000115053_ENST00000322723|hu_hu|hu_hu_hu_mus_True|48_48 (ssRNA)
RNA: GGGAGUUCUACAGUCCGACGAUCACUAUUAAAGUCUACAAAACCAAACCCUUUGGAAGAACCAGUUUCCCGAUCAGUGACUAUUCUUGCCCGAACGGAGCCCUCAAAUGAUUCUUUUAAGGUCUCUUCAGUGGUAUCCUCAGACAACAGAGGAUUGAGCAUCA

These binders were tested against T1, UNK ZnF1-3 (assay: nsRBNS (natural sequence RNA bind-n-seq); RBNS binding buffer (assumed for nsRBNS): 25 mM Tris pH 7.5, 150 mM KCl, 3 mM MgCl2, 0.01% Triton X-100, 500 ug/ml BSA, 20 U/ml SUPERase-In, 4 C; UNK is unkempt and MSI1 is Musashi-1; names of the RNAs are library labels; protein concentration not given here; high values mean tight binding).

Compared with B1, B2 is lower in binding signal: 1.41 enrichment R for the first, 1.31 enrichment R for the second.

Going from B3 to B4, the binding signal falls from 1.21 enrichment R to 0.614 enrichment R.

Going from B5 to B6, the binding signal falls from 1.02 enrichment R to 0.749 enrichment R.

Compared with B7, B8 is higher in binding signal: 1.46 enrichment R for the first, 2.12 enrichment R for the second.

Going from B9 to B10, the binding signal rises from 0.734 enrichment R to 0.894 enrichment R.

Compared with B11, B12 is higher in binding signal: 1.17 enrichment R for the first, 2.09 enrichment R for the second.

First: B13
Second: B14
The binding signal of the first is lower: 1.02 enrichment R for the first, 2.96 enrichment R for the second.

First: B15
Second: B16
The binding signal of the first is higher: 2.31 enrichment R for the first, 1.68 enrichment R for the second.

First: B17
Second: B18
The binding signal of the first is lower: 0.624 enrichment R for the first, 1.03 enrichment R for the second.

Going from B19 to B20, the binding signal falls from 0.692 enrichment R to 0.622 enrichment R.

First: B21
Second: B22
The binding signal of the first is higher: 1.12 enrichment R for the first, 0.38 enrichment R for the second.
